Laboratory results from PubChem BioAssay AID1346428 (National Center for Advancing Translational Sciences (NCATS), 2018).
Where “and” joins values, the source holds several entries; their conditions need not be identical. Equal values may be shown once. About 1,200 (2.5%) of roughly 48,000 compounds were called active. Inconclusive results (about 2%) are left out.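 How the source made its calls: active means activation of at least 60% and not above a set upper limit (about 1 call in 100 departs from these limits); inconclusive means activation of 40% to 60%, or above that upper limit; inactive means activation under 40%.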 The list shows a part of the results.

target: Probable G-protein coupled receptor 32 (Homo sapiens) (UniProt O75388); assay: qHTS for Agonists of Human Resolvin D1 Receptor DRV1; details: CHO-K1 GPR32 beta-arrestin PathHunter luminescence, 90 min; at 76.9 µM; stronger effect = higher value; zero percent set by DMSO-only wells; further: 0% is about no effect
Sequence of UniProt O75388 (O75388 whole entry, looked up): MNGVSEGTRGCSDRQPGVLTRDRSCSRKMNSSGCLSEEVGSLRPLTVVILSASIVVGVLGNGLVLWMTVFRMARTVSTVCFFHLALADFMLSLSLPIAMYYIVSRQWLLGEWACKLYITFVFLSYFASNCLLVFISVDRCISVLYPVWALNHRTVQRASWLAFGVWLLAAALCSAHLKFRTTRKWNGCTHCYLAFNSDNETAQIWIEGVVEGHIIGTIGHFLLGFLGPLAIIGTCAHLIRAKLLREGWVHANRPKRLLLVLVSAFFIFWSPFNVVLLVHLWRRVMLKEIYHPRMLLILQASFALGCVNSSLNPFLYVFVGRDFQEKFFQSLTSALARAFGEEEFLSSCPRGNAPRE
How it was run: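 Readings come from a cell-based beta-arrestin complementation format: CHO-K1 GPR32 stable cells (2,500/well) treated 90 min with compounds, then beta-Gal substrate added for 1 h before chemiluminescence imaging.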

activation, inactive:
Cc1cc(C)cc(NC(=O)CSc2nc3sc4c(c3c(=O)[nH]2)CCCC4)c1 -5.64%
Cc1cc(Cl)ccc1NC(=O)CCCn1nc(C)c2c(C)n(-c3ccccc3)nc2c1=O 3.51%
Cc1c(Cl)cccc1NC(=O)Cn1c(=O)n(Cc2nc(-c3ccccc3)no2)c(=O)c2cc3c(cc21)OCO3 -5.51%
CCc1nn(CC(=O)NCCCc2ccccc2)c(=O)c2cc3ccccc3n12 0.276%
CSc1ccc(CCNC(=O)c2cc3cc4cc(C)ccc4nc3s2)cc1 -11.8%
Cc1ccc(Cn2c(=O)c3cccnc3n(CC(=O)Nc3cc(Cl)ccc3C)c2=O)cc1 -1.96%
CCCC(=O)Nc1cccc(-c2cn3c(C)csc3n2)c1 -12.7%
COC(=O)c1sccc1S(=O)(=O)N(CC(=O)Nc1ccccc1)c1ccccc1 -11.3%
Cc1ccc(Nc2cc(C)c(C#N)c3nc4ccccc4n23)c(C)c1 -1.04%
Cc1c(Cl)cccc1NC(=O)C1CCN(c2nc3ccccc3[nH]2)CC1 -7.02%
Cc1cccc(-n2nc(C)c(C(=O)N3CCN(c4ccccc4)CC3)c2-n2cccc2)c1 -11.7%
CS(=O)(=O)N(Cc1ccccc1)c1ccc(C(=O)Nc2ccc(Cl)cc2)cc1 13.1%
Cn1c([N+](=O)[O-])cnc1COC(N)=O -3.59%
Cc1ccc(C)c(N2CCN(C(=O)C(CC(C)C)NS(=O)(=O)c3ccc4nc(C)sc4c3)CC2)c1 (centres undefined) -18.2%
COc1ccccc1C(=O)Nc1ccc(S(=O)(=O)Nc2ncccn2)cc1 4.76%
Cc1cc(F)ccc1NC(=O)CCn1nc(C)c(S(=O)(=O)N2CCCCC2)c1C -9.2%
COc1ccc(Cl)cc1NC(=O)c1cc(S(=O)(=O)N(C)Cc2ccccc2)ccc1F -6%
CCOc1ccc(-c2cc(C(=O)NCCc3ccc(OC)c(OC)c3)c3c(-c4ccc(F)cc4)[nH]nc3n2)cc1 -2.25%
COc1cccc(-c2nc(SCC(=O)Nc3ccc4c(c3)OCCO4)c(-c3ccc(C)cc3)[nH]2)c1 -26.9%
COc1ccccc1CN(Cc1c(Cl)cccc1Cl)S(=O)(=O)c1ccc(Br)cc1 -15.8%
Cn1c(=O)[nH]c(=O)c2c1nc(CN1CCN(c3ccccc3F)CC1)n2Cc1ccc(F)cc1 -26.7%
Cc1cccc(OCCCn2c(CCNC(=O)C3CCCCC3)nc3ccccc32)c1 17.9%
CCOC(=O)c1cnc2c(C)cccc2c1Nc1ccc(OC(C)C)cc1 -1.46%
Cc1ccc(C)c(N2CCN(c3nc4ccc(C(=O)c5ccccc5)cc4n4cnnc34)CC2)c1 -12.2%
O=C(NCCc1ccc(Cl)cc1)c1ccc(CSCc2cccc(Cl)c2)o1 -5.03%
Cn1cc(S(=O)(=O)c2cccc(Cl)c2)c(=O)c2cc(F)c(N3CCCCC3)cc21 -2.64%
Cc1ccc(Cl)cc1NC(=O)c1oc2ccc(S(=O)(=O)N3CCCCCC3)cc2c1C -0.142%
Cc1cc(C)cc(OCC(=O)N2CCC(c3nc4ccccc4s3)CC2)c1 25%
CCc1cccc(C)c1NC(=O)CSc1nc2c(c(=O)[nH]1)CCC2 -8.1%
CCCN1C(=O)C(Cc2nc3ccccc3c(=O)n2-c2ccc(OC)cc2)c2cc(C)ccc21 (centres undefined) -5.22%
CCOc1ccc(NS(=O)(=O)c2ccc3[nH]c4c(c3c2)CCCC4)cc1 48.6%
Cc1cccc(N(C)S(=O)(=O)c2cc3c(cc2Cl)NC(=O)CO3)c1 -3.66%
Cc1nn2c(=O)cc(COC(=O)c3cccc(NC(=O)c4cccs4)c3)nc2s1 5.04%
COc1ccc2nc(N(Cc3cccnc3)C(=O)c3ccc4c(c3)OCCO4)sc2c1 -11.7%
COc1ccc(N(CC(=O)N2CCN(c3cccc(C)c3C)CC2)S(=O)(=O)c2c(C)noc2C)cc1 -38.5%
COc1ccc(-c2cn3nc(N4CCC(C(=O)Nc5cccc(C)c5C)CC4)sc3n2)cc1 9.22%
Cc1ccc(CNS(=O)(=O)c2ccc3c(c2)CCN3S(C)(=O)=O)cc1 14.3%
Cc1c(Cl)cccc1NC(=O)CSc1nc(=O)n(Cc2ccccn2)c2c1CCC2 -3.96%
CCCSc1ncc(Cl)c(C(=O)Nc2sc3c(c2C(=O)NCCOC)CCCC3)n1 -15%
CCCCOC(=O)c1ccc(NC(=O)c2cc3c(=O)n4cccc(C)c4nc3n2C)cc1 -13.6%
O=C(Nc1ccc(F)cc1F)c1cc(-c2ccccc2O)no1 3.61%
Cc1ccc(NC(=O)Cn2c(=O)n(CCCCC(=O)NCCc3ccccc3)c(=O)c3ccccc32)c(C)c1 6.67%
Cc1nn2c(=O)cc(COC(=O)c3ccc(NC(=O)C4CCCCC4)cc3)nc2s1 14.2%
O=C(COc1ccccc1Cl)Nc1ccc2oc(-c3ccccc3F)nc2c1 -7.56%
COCCNC(=O)CCCn1c(=O)c2cc(OC)c(OC)cc2n(CC(=O)Nc2ccc(F)cc2)c1=O 2.12%
Cc1ccc(NC(=O)C(NS(=O)(=O)c2ccc3c(c2)CCC(=O)N3)c2ccccc2)cc1C (centres undefined) 15.3%
CCOC(=O)C1CCN(CCC(=O)Nc2ccc(Br)c(C)c2)CC1 7.06%
O=C(CSc1nc(=O)[nH]c2c1CCCC2)Nc1ccccc1C(F)(F)F -13.3%
CCOc1ccc(CNC(=O)c2ccc(-c3nc(CS(=O)(=O)c4ccccc4)c(C)o3)cc2)cc1 -0.113%
Cc1ccc(C)c(NC(=O)CN2C(=O)COc3ccc(Cl)cc32)c1 0.704%
O=C(Nc1c(C(=O)Nc2ccc(F)cc2)oc2ccccc12)c1ccccc1F -12.5%
CCCCNC(=O)NS(=O)(=O)c1ccc(C)cc1 -0.0347% and -5.22%
Cn1c(=O)nc2n(-c3ccc(Cl)c(Cl)c3)c3cc(Cl)ccc3cc-2c1=O -7.96%
CC1=C(C(=O)OCC2CCCCC2)C(c2ccccc2F)CC(=O)N1 (centres undefined) 39.3%
COc1ccccc1CNC(=O)C1CCCN(c2nnc(-n3c(C)ccc3C)s2)C1 (centres undefined) 15.2%
Cc1cc(O)cc2c1O[C@](C)(CCC[C@H](C)CCC[C@H](C)CCCC(C)C)CC2 -4.96%
Cc1ccccc1CNS(=O)(=O)c1csc(C(N)=O)c1 11%
Cc1nc2nc(SCC(=O)NCCc3ccccc3)nn2c(C)c1Cc1c(F)cccc1Cl -8.47%
COc1ccc(C(=O)N(Cc2ccc(C(C)C)cc2)C2CCS(=O)(=O)C2)cc1 (centres undefined) -15.4%
Cc1ccc(C(C)C)c(OCC(=O)N2CCC(c3nc4ccccc4o3)CC2)c1 -18.4%
CCOc1ccccc1C(=O)Nc1ccc2c(c1)N(C)C(=O)c1ccccc1S2 19.6%
CCn1c(SCCOc2ccccc2F)nc2ccccc21 -4.98%
Cc1c(C2=CCN(S(=O)(=O)c3ccc(CC(C)C)cc3)CC2)c2ccccc2n1CC(=O)N1CCCC1 -10.5%
Cc1nn(-c2ccc(N3CCOCC3)nn2)c(C)c1CCC(=O)NCc1ccc(OC(C)C)cc1 0%
Cc1ccc(CNC(=O)Cc2coc3cc(C)cc(C)c23)cc1 5.97%
Cc1ccc(NC(=O)Nc2nnc(N3CCCC3)s2)c(C)c1 2.59%
CCCCN(C)C(=O)C1CCCN(c2ncnc3onc(-c4ccc(F)cc4)c23)C1 (centres undefined) -11.8%
Cc1cccc(N2CCN(C(=O)CSCc3ccc(F)cc3)CC2)c1C -18.6%
COc1ccc(CNC(=O)CCC(=O)N2CC3CCCN3c3ccccc32)cc1 (centres undefined) -32%
COc1ccccc1CNC(=O)c1ccc(CS(=O)(=O)c2ccccc2C)o1 17%
O=C(NCc1ccccc1)c1ccc(NC(=O)c2nsc3ccccc23)cc1 -15.3%
CCOc1cccc(CC(=O)Nc2ccc3nc(N4CCCCC4)cc(C)c3c2)c1OCC -18.4%
CCCNC(=O)c1ccc(-n2c(-c3ccccc3)cc3c2CCCCC3)cc1 -35.3%
COc1cc(CN(CC2CCCO2)C(=O)c2ccc(F)cc2)cc(OC)c1OC (centres undefined) -17.4%
CC(=O)N1CCCc2cc(S(=O)(=O)N3CCC(C(=O)NCc4ccc(N(C)C)cc4)CC3)ccc21 3.08%
Cc1ccccc1-c1noc(C(C)NC(=O)c2ccco2)n1 (centres undefined) 15.9%
CCC(=O)N1CCc2cc(S(=O)(=O)NCCC(=O)NCc3ccccc3Cl)ccc21 4.11%
COc1ccccc1CNC(=O)C(CC(C)C)NS(=O)(=O)c1ccc2c(c1)oc(=O)n2C (centres undefined) -2.42%
Cn1c(=NC(=O)c2ccc3c(c2)OCCO3)sc2cc(S(C)(=O)=O)ccc21 2.97%
Cc1cc(Br)ccc1NC(=O)CCS(=O)(=O)c1cccc2nsnc12 15.9%
CC(=O)NCCNc1nc2c(S(=O)(=O)c3ccc(C)c(C)c3)nnn2c2ccc(Cl)cc12 -16.4%
COC(=O)c1ccc(-n2nnc(-c3nc(-c4ccc5c(c4)OCO5)no3)c2C)cc1 3.92%
CC(C)c1nc2ccc(C(=O)NCCCN3CCN(c4ccccc4F)CC3)cc2o1 -8.08%
CCN(C(=O)CN(C)S(=O)(=O)c1ccc2c(c1)c(=O)n(C)c(=O)n2C)c1ccc(OC)cc1 14.6%
